# In PubChem BioAssay AID624296 (National Center for Advancing Translational Sciences (NCATS), 2012):
# In all, about 350,000 compounds went through this assay and about 9,900 (2.8%) were called active. The shares of active, inactive and inconclusive entries below differ from those in the screen. Calls follow the shape of the dose curve; as a rule, active = well fitted activation curve with a large enough effect; inconclusive = small, poorly fitted or top-dose-only effect; inactive = no such curve, though single readings can be large or run the other way. Potencies of inconclusive entries are left out as doubtful fits.
# Assay: A quantitative high throughput screen for small molecules that induce DNA re-replication in MCF 10a normal breast cells. Also: nearly all actives have a fitted effect of over 50% in size. As to activity, positive = re-replication: % of control where 0% means no effect.
# Conditions: MCF 10A DNA re-replication, Hoechst nuclear intensity, 48 h; activity, positive = re-replication: at 46.1 µM (top of the series)
# Potency is read from the fitted curve at half-maximal effect; tags tell the direction and shape of the fitted curve.
Compound,Potency,"activity, positive = re-replication"
CCCCNc1ncnc2c1cnn2-c1ccccc1,"inconclusive [activator, full curve]",–
COc1cc(OC)cc(-c2c(-c3ccc(F)cc3)c3cc(-c4cccc5[nH]ccc45)ccc3n2C)c1,–,inactive: -2.16%
COC(=O)[C@]1(C)N[C@H](CN(C)C(=O)C2CCCCC2)[C@@H]2C(=O)N(Cc3ccccc3)C(=O)[C@@H]21,–,inactive: 0.17%
Nc1ncnc2c1ncn2[C@@H]1O[C@H](CNCc2c(OCc3ccccc3F)ccc3ccccc23)[C@@H](O)[C@H]1O,"inconclusive [activator, partial curve, poor fit]",–
CC1CCCN(C(=O)CCc2ccccc2)C1 (centres undefined),–,inactive: 1.84%
O=C(N/N=C\c1ccc([N+](=O)[O-])o1)c1cncc(Br)c1,"inconclusive [activator, single point]",–
CCN1C(=O)CSC1=Nc1ccc(Cl)c(Cl)c1,"inconclusive [activator, single point]",–
Cn1c(N)c(S(=O)(=O)N2CCN(c3ccccc3Cl)CC2)c(=O)n(C)c1=O,–,inactive: 2.27%
Cc1ccccc1-n1c(=O)c(C#N)cc2c(=O)n3ccccc3nc21,"inconclusive [activator, partial curve, poor fit]",–
COc1cccc(C2=CC(=O)CC(C)(C)C2)n1,–,inactive: 20%
Cc1cc(N2CCN(C)CC2)nc2ccc(NC(=S)N3CCN(c4ccc(F)cc4)CC3)cc12,"inconclusive [activator, partial curve, poor fit]",–
O=C(NCCCN1CCOCC1)c1cc(S(=O)(=O)N2CCOCC2)c(Cl)cc1Cl,"inconclusive [activator, single point]",–
COc1ccc(-c2cn[nH]c2-c2ccc(OCc3ccc([N+](=O)[O-])cc3)cc2O)cc1,active: 5.8 µM,–
O=C1C2C3C=CC(C4CC34)C2C(=O)N1/N=C/c1ccc([N+](=O)[O-])s1 (centres undefined),"inconclusive [activator, single point]",–
Nc1nc(CCl)nc(Nc2ccccc2)n1,"inconclusive [activator, single point]",–
O=C1/C(=C/c2cccs2)CCc2ccccc21,"inconclusive [activator, single point]",–
O=C(CCCc1c[nH]c2ccccc12)N1CCCCCC1,"inconclusive [activator, partial curve, poor fit]",–
CN(C)S(=O)(=O)c1ccc(N2CCCC2)c(C(=O)N2CCC(C(N)=O)CC2)c1,–,inactive: -1.8%
CCC(Sc1nc2cc(OC)c(OC)cc2c(=O)n1CCc1ccc(S(N)(=O)=O)cc1)C(=O)NCCOC (centres undefined),"inconclusive [activator, partial curve, poor fit]",–
O=C(N=C1SC2CS(=O)(=O)CC2N1c1ccccc1Cl)C1CCCO1 (centres undefined),–,inactive: -4.11%
COC(=O)C[C@H]1C=C[C@@H](C(C(=O)OC)C(=O)OC)CN1C(C)=O,–,inactive: -15.9%
CCOC(=O)C1=NN(C(=O)c2ccc(OC)cc2)C(O)(c2ccc(Cl)cc2)C1 (centres undefined),"inconclusive [activator, single point]",–
C=CCN(C(=O)C1CC(=O)N(C2CCCC2)C1)c1nc(-c2ccc(S(C)(=O)=O)cc2)cs1 (centres undefined),–,inactive: 17.7%
c1ccc(C2=Nn3c(nnc3-c3n[nH]c4c3CCC4)SC2)cc1,"inconclusive [activator, partial curve, poor fit]",–
CCOC(=O)c1[nH]c2ccccc2c1NC(=O)NC1CCCCC1,"inconclusive [activator, partial curve]",–

Compound,Potency,"activity, positive = re-replication"
Cc1c(C(=O)N/N=C/c2cccnc2)sc(N)c1C#N,"inconclusive [activator, partial curve, poor fit]",–
COC(=O)c1nn(-c2ccc(Oc3ccccc3)cc2)c(=O)cc1O,"inconclusive [activator, single point]",–
COc1cc(OC)cc(N2CC(C)(C)C2=O)c1,–,inactive: -1.29%
CC(=NNC(=S)N1CC2CCC(CC2)C1)c1ccncn1,–,inactive: 45.4%
CCC1=NN(C(=O)c2cccc(Br)c2)C(O)(c2ccc(Br)cc2)C1 (centres undefined),"inconclusive [activator, partial curve, poor fit]",–
COc1cc(C(=O)OCC(=O)N2CCOCC2)c([N+](=O)[O-])cc1OC,–,inactive: -2.84%
O=C(O)c1ccc(/C=N/N2CCN(C3c4ccccc4-c4ccccc43)CC2)cc1,–,inactive: 8.19%
CCCN(CCC)S(=O)(=O)c1ccc(C(=O)NCc2n[nH]c(=S)n2-c2ccc(Cl)c(Cl)c2)cc1,"inconclusive [activator, partial curve, poor fit]",–
COc1ccc(CN2CCNC(=O)C2CC(=O)NCCSc2nccn2C)c(OC)c1 (centres undefined),"inconclusive [activator, single point]",–
CC(/C=C1\SC(=Nc2cccnc2)NC1=O)=C\c1ccccc1,active: 1.64 µM,–
C/C(=N\NC(=S)NC1CCCCC1)c1ccccc1,–,inactive: 5.63%
O=C1CCC/C1=C\c1ccccc1,–,inactive: -0.869%
Cc1cccc(N(C(=O)CNC(=O)c2ccco2)C(C(=O)NC2CCCCC2)c2cccnc2)c1 (centres undefined),–,inactive: -4.05%
O=C1NC2(CCCCC2)C(=O)N1/N=C/c1ccccc1Br,"inconclusive [activator, single point]",–
CC(C)CNS(=O)(=O)c1ccc(S(=O)(=O)N2CCN(C3CCCC3)CC2)cc1,–,inactive: 0.109%
O=C1C=C(N2CCOCC2)c2ccccc2C1=O,"inconclusive [activator, single point]",–
CCN(CC(=O)Nc1c(F)cccc1F)C(=O)c1ccc2ncsc2c1,–,inactive: -0.718%
CC(Oc1ccc(Cl)cc1Cl)C(=O)NC1=NN(c2ccccc2)C(=O)C1 (centres undefined),active: 18.4 µM,–
CC1CCCCN1C(=O)c1ccc(NC(=O)c2ccccc2Cl)cc1 (centres undefined),–,inactive: 18.4%
CCOc1cccc(/C=C/c2ccc3cccc(O)c3n2)c1O,"inconclusive [activator, partial curve, poor fit]",–
C/C(=N\O)C(C)(C)Nc1ccccc1F,–,inactive: 1.92%
COc1ccc(OC)c(-c2cnc(OC(C)(C)C)nc2OC(C)(C)C)c1,"inconclusive [activator, partial curve, poor fit]",–
COc1cccc(N2CC(O)Cn3c2nc2c3c(=O)n(CCCc3ccccc3)c(=O)n2C)c1 (centres undefined),–,inactive: 0.661%
COc1ccccc1CN1CCCCCC1,"inconclusive [activator, single point]",–
COc1cc(NC(=O)Cn2c(=O)n(-c3cccc(C)c3)c(=O)c3c(C)c(C)sc32)cc(OC)c1,"inconclusive [activator, partial curve]",–

Compound,Potency,"activity, positive = re-replication"
COc1cc(OC)c(C2SCCCS2)cc1OC,–,inactive: 0.0475%
Cc1occc1C(=O)NNC(=O)c1ccccc1Br,–,inactive: -6.33%
COc1ccc(CCN=C2SCC(=O)N2C)cc1OC,"inconclusive [activator, partial curve, poor fit]",–
CN1CCc2nc(SCc3ccc(Cl)cc3)c(C#N)c(-c3cccs3)c2C1,"inconclusive [activator, single point]",–
CC1CCCCC1NC(=O)CN1C(=O)NC(C)(c2cccc(Br)c2)C1=O (centres undefined),–,inactive: -4.85%
Cc1cccc2c1NC(=O)C2=O,"inconclusive [activator, single point]",–
CCOc1ccccc1-c1nn2c(Cc3ccccc3)nnc2s1,"inconclusive [activator, partial curve]",–
Cn1c(N/N=C/c2cccs2)nc2c1c(=O)n(Cc1ccccc1)c(=O)n2C,–,inactive: -15.9%
Cc1nc(C(F)(F)F)c(C(=O)NC(=O)Nc2ccc(OC(F)(F)F)cc2)s1,–,inactive: 4.06%
COC(=O)Cn1cnc2c(nnn2-c2ccc(OC)cc2)c1=O,"inconclusive [activator, single point]",–
O=C1CCCN2N=C(SCC(=O)Nc3ccc(F)cc3F)SC2=N1,–,inactive: 3.69%
Cc1ccc(C(=O)NCC(=O)OCCCn2c(=O)[nH]c3ccccc32)cc1,"inconclusive [activator, full curve, poor fit]",–
CC(/C=C/c1ccco1)=N\NC(=O)c1cc(Cl)ccc1O,"inconclusive [activator, partial curve, poor fit]",–
Cc1cccc(-c2nnc(NC(=O)c3ccc(Cl)cc3)o2)c1,active: 14.6 µM,–
CN(CC1CCOCC1)C(=O)c1ccc2nc(Cc3cccc(Cl)c3)oc2c1,active: 18.4 µM,–
Cc1ccc(N/C=C2\C(=O)C3(C)CCC2C3(C)C)cc1C (centres undefined),"inconclusive [activator, single point]",–
COc1ccc(CN2CC(C(N)=O)Oc3ccccc32)cc1F (centres undefined),–,inactive: 11.5%
C=CC[n+]1c(-c2ccc(C)cc2)csc1Nc1ccc(NC(C)=O)cc1,"inconclusive [activator, partial curve]",–
COc1ccccc1C1CCN(Cc2ccccc2)CC1,"inconclusive [activator, partial curve, poor fit]",–
Cc1ccc(S(=O)(=O)N2CCN(c3ccc(C(=O)N4CCOCC4)cc3[N+](=O)[O-])CC2)cc1,"inconclusive [activator, partial curve, poor fit]",–
CCOC(=O)c1c(NC(=O)C2CCCN2S(=O)(=O)c2cccc3nsnc23)sc(C)c1C (centres undefined),–,inactive: 13.7%
CCOc1cccc2cc(C(=O)NCc3cccnc3)c(=O)oc12,"inconclusive [activator, partial curve, poor fit]",–
O=C1CN(C(=O)NCC(=O)N2CCCC2)c2ccccc2N1,–,inactive: -3.96%
Cn1nc(C(=O)OCC(=O)c2ccc(Br)cc2)c2ccccc2c1=O,–,inactive: -0.466%
